To fix the notation:
T1: RBFOX1 RRM RbFoxmut (Fox-RRM*) (Homo sapiens, UniProt Q9NWB1 109-208, R118D;E147R;N151S;E152T)
T1 sequence: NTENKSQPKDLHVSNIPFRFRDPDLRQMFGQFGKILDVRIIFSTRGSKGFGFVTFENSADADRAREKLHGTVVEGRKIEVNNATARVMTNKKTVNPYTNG

B1: CAGUGGA (DNA:RNA)
RNA: GGGAGACCGGAAUUCAGAUUGUCCCAGUGGAUUAAAUCCCGUCGUAGCCACCA
DNA 1: CAATCTGAATTCCGGTCTCCC
DNA 2: TGGTGGCTACGACGGGATT
B2: UACUUAU (DNA:RNA)
RNA: B1 RNA with C25U, G27C, G29U, G30A, A31U
DNA 1: CAATCTGAATTCCGGTCTCCC
DNA 2: TGGTGGCTACGACGGGATT
B3: UGGAACU (DNA:RNA)
RNA: B1 RNA with C25U, A26G, U28A, G29A, G30C, A31U
DNA 1: CAATCTGAATTCCGGTCTCCC
DNA 2: TGGTGGCTACGACGGGATT
B4: ACAAUCA (DNA:RNA)
RNA: B1 RNA with C25A, A26C, G27A, U28A, G29U, G30C
DNA 1: CAATCTGAATTCCGGTCTCCC
DNA 2: TGGTGGCTACGACGGGATT
B5: CUUCUGG (DNA:RNA)
RNA: B1 RNA with A26U, G27U, U28C, G29U, A31G
DNA 1: CAATCTGAATTCCGGTCTCCC
DNA 2: TGGTGGCTACGACGGGATT
B6: UUAGUGA (DNA:RNA)
RNA: B1 RNA with C25U, A26U, G27A, U28G, G29U
DNA 1: CAATCTGAATTCCGGTCTCCC
DNA 2: TGGTGGCTACGACGGGATT
B7: CAUCACC (DNA:RNA)
RNA: B1 RNA with G27U, U28C, G29A, G30C, A31C
DNA 1: CAATCTGAATTCCGGTCTCCC
DNA 2: TGGTGGCTACGACGGGATT
B8: GACUGGA (DNA:RNA)
RNA: B1 RNA with C25G, G27C
DNA 1: CAATCTGAATTCCGGTCTCCC
DNA 2: TGGTGGCTACGACGGGATT
B9: CCCAUGG (DNA:RNA)
RNA: B1 RNA with A26C, G27C, U28A, G29U, A31G
DNA 1: CAATCTGAATTCCGGTCTCCC
DNA 2: TGGTGGCTACGACGGGATT
B10: GAAGCGU (DNA:RNA)
RNA: B1 RNA with C25G, G27A, U28G, G29C, A31U
DNA 1: CAATCTGAATTCCGGTCTCCC
DNA 2: TGGTGGCTACGACGGGATT
B11: GCUUAAG (DNA:RNA)
RNA: B1 RNA with C25G, A26C, G27U, G29A, G30A, A31G
DNA 1: CAATCTGAATTCCGGTCTCCC
DNA 2: TGGTGGCTACGACGGGATT
B12: GCCUCAU (DNA:RNA)
RNA: B1 RNA with C25G, A26C, G27C, G29C, G30A, A31U
DNA 1: CAATCTGAATTCCGGTCTCCC
DNA 2: TGGTGGCTACGACGGGATT
B13: CACCGAU (DNA:RNA)
RNA: B1 RNA with G27C, U28C, G30A, A31U
DNA 1: CAATCTGAATTCCGGTCTCCC
DNA 2: TGGTGGCTACGACGGGATT
B14: CACUACU (DNA:RNA)
RNA: B1 RNA with G27C, G29A, G30C, A31U
DNA 1: CAATCTGAATTCCGGTCTCCC
DNA 2: TGGTGGCTACGACGGGATT
B15: AGUGCGU (DNA:RNA)
RNA: B1 RNA with C25A, A26G, G27U, U28G, G29C, A31U
DNA 1: CAATCTGAATTCCGGTCTCCC
DNA 2: TGGTGGCTACGACGGGATT
B16: CUCCCUC (DNA:RNA)
RNA: B1 RNA with A26U, G27C, U28C, G29C, G30U, A31C
DNA 1: CAATCTGAATTCCGGTCTCCC
DNA 2: TGGTGGCTACGACGGGATT
B17: GGUGGUG (DNA:RNA)
RNA: B1 RNA with C25G, A26G, G27U, U28G, G30U, A31G
DNA 1: CAATCTGAATTCCGGTCTCCC
DNA 2: TGGTGGCTACGACGGGATT
B18: GGUCAGG (DNA:RNA)
RNA: B1 RNA with C25G, A26G, G27U, U28C, G29A, A31G
DNA 1: CAATCTGAATTCCGGTCTCCC
DNA 2: TGGTGGCTACGACGGGATT
B19: ACAUUGU (DNA:RNA)
RNA: B1 RNA with C25A, A26C, G27A, G29U, A31U
DNA 1: CAATCTGAATTCCGGTCTCCC
DNA 2: TGGTGGCTACGACGGGATT
B20: UUCAAGA (DNA:RNA)
RNA: B1 RNA with C25U, A26U, G27C, U28A, G29A
DNA 1: CAATCTGAATTCCGGTCTCCC
DNA 2: TGGTGGCTACGACGGGATT
B21: CCCAGUU (DNA:RNA)
RNA: B1 RNA with A26C, G27C, U28A, G30U, A31U
DNA 1: CAATCTGAATTCCGGTCTCCC
DNA 2: TGGTGGCTACGACGGGATT
B22: ACGUCAU (DNA:RNA)
RNA: B1 RNA with C25A, A26C, G29C, G30A, A31U
DNA 1: CAATCTGAATTCCGGTCTCCC
DNA 2: TGGTGGCTACGACGGGATT
B23: UGUUAAA (DNA:RNA)
RNA: B1 RNA with C25U, A26G, G27U, G29A, G30A
DNA 1: CAATCTGAATTCCGGTCTCCC
DNA 2: TGGTGGCTACGACGGGATT
B24: UGUGGUG (DNA:RNA)
RNA: B1 RNA with C25U, A26G, G27U, U28G, G30U, A31G
DNA 1: CAATCTGAATTCCGGTCTCCC
DNA 2: TGGTGGCTACGACGGGATT
B25: UCGCUAG (DNA:RNA)
RNA: B1 RNA with C25U, A26C, U28C, G29U, G30A, A31G
DNA 1: CAATCTGAATTCCGGTCTCCC
DNA 2: TGGTGGCTACGACGGGATT
B26: AUUGCCG (DNA:RNA)
RNA: GGGAGACCGGAAUUCAGAUUGUCCAUUGCCGUUAAAUCCCGUCGUAGCCACCA
DNA 1: CAATCTGAATTCCGGTCTCCC
DNA 2: TGGTGGCTACGACGGGATT
B27: UGCCAAA (DNA:RNA)
RNA: B1 RNA with C25U, A26G, G27C, U28C, G29A, G30A
DNA 1: CAATCTGAATTCCGGTCTCCC
DNA 2: TGGTGGCTACGACGGGATT
B28: GACUAUG (DNA:RNA)
RNA: B1 RNA with C25G, G27C, G29A, G30U, A31G
DNA 1: CAATCTGAATTCCGGTCTCCC
DNA 2: TGGTGGCTACGACGGGATT
B29: CGCGCAG (DNA:RNA)
RNA: B26 RNA with A25C, U26G, U27C, C30A
DNA 1: CAATCTGAATTCCGGTCTCCC
DNA 2: TGGTGGCTACGACGGGATT
B30: GCAUAAC (DNA:RNA)
RNA: B1 RNA with C25G, A26C, G27A, G29A, G30A, A31C
DNA 1: CAATCTGAATTCCGGTCTCCC
DNA 2: TGGTGGCTACGACGGGATT
B31: UAAAUGC (DNA:RNA)
RNA: B1 RNA with C25U, G27A, U28A, G29U, A31C
DNA 1: CAATCTGAATTCCGGTCTCCC
DNA 2: TGGTGGCTACGACGGGATT

Our source for the binding signal values is publication PMC9911399, “Two distinct binding modes provide the RNA-binding protein RbFox with extraordinary sequence specificity”.

Residue numbers refer to the chain shown, from its start. The list shows a part of the results.

For this assay, the target named is T1, RBFOX1 RRM RbFoxmut (Fox-RRM*). Put plainly: EMSA; HiTS-Eq, 1 nM pool, 10 min; buffer printed only for the single-RNA assays: 10 mM Tris pH 7.5, 150 mM NaCl, 3.4 mM EDTA, 0.001% NP-40, 30 C. Particulars: tags: His6 N-terminal (pET28a); label: 5' 32P. In outline:
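A pool of RNA with 7 randomized nucleotides, 5′-radiolabelled and with DNA-annealed flanks, was equilibrated at 1 nM for 10 min in 50 µL with purified RbFox RRM, wild type or mutant, across increasing protein concentrations. Free RNA was separated by 8% native PAGE, excised, reverse-transcribed, barcoded by PCR and sequenced. Relative association constants were obtained from read-count changes of each RNA species versus the control reaction and normalised to the cognate motif.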
On the technique in general: A gel shift assay detects complexes by their altered migration in electrophoresis.
Turning to B1, the binding signal is 0.125 KA relative to UGCAUGU.
For B2 the value was 0.12 KA relative to UGCAUGU.
On to B3, for which the binding signal was 0.1 KA relative to UGCAUGU.
In the case of B4, the binding signal is 0.0799 KA relative to UGCAUGU.
The result for B5 reads 0.079 KA relative to UGCAUGU.
The result for B6 reads 0.0842 KA relative to UGCAUGU.
For B7 the value was 0.0759 KA relative to UGCAUGU.
Regarding B8, the binding signal was 0.0857 KA relative to UGCAUGU.
B9: the binding signal was 0.0668 KA relative to UGCAUGU.
With B10, the binding signal was 0.0921 KA relative to UGCAUGU.
The result for B11 reads 0.12 KA relative to UGCAUGU.
For B12 the value was 0.117 KA relative to UGCAUGU.
Regarding B13, the binding signal is 0.0813 KA relative to UGCAUGU.
With B14, the binding signal was 0.0793 KA relative to UGCAUGU.
The result for B15 reads 0.144 KA relative to UGCAUGU.
B16: the binding signal was 0.0399 KA relative to UGCAUGU.
Take B17: the binding signal was 0.175 KA relative to UGCAUGU.
Take B18: the binding signal is 0.0722 KA relative to UGCAUGU.
Consider B19, for which the binding signal is 0.159 KA relative to UGCAUGU.
As to B20, the binding signal was 0.0823 KA relative to UGCAUGU.
B21: the binding signal is 0.0957 KA relative to UGCAUGU.
As for B22, the binding signal was 0.107 KA relative to UGCAUGU.
As to B23, the binding signal is 0.11 KA relative to UGCAUGU.
For the molecule B24, the binding signal is 0.273 KA relative to UGCAUGU.
The result for B25 reads 0.108 KA relative to UGCAUGU; that for B26, 0.118 KA relative to UGCAUGU.
The result for B27 reads 0.0841 KA relative to UGCAUGU; that for B28, 0.0965 KA relative to UGCAUGU.
For the molecule B29, the binding signal is 0.0806 KA relative to UGCAUGU.
Take B30: the binding signal is 0.0979 KA relative to UGCAUGU.
For B31 the value was 0.0677 KA relative to UGCAUGU.
